{
  "source": "the supplement of paper PMC8728848",
  "binders": {"B1": {"name": "UDA (Urtica dioica), P11218 (protein)", "chain": "MMMRFLSAVVIMSSAMAVGLVSAQRCGSQGGGGTCPALWCCSIWGWCGDSEPYCGRTCENKCWSGERSDHRCGAAVGNPPCGQDRCCSVHGWCGGGNDYCSGSKCQYRCSSSVRGPRVALSGNSTANSIGNVVVTEPLFDQMFSHRKDCPSQGFYSYHSFLVAAESFPAFGTIGDVATRKREVAAFLAHISQATSGERSDVENPHAWGLCHINTTTVTENDFCTSSDWPCAAGKKYSPRGPIQLTHNFNYGLAGQAIGEDLIQNPDLVEKDPIISFKTALWFWMSQHDNKPSCHDIVLNANSAANRIPNKGVIGNIISRAFGHDDFAVRSSSIGFYKRYCDMLGVSYGHDLKYWFDNTPSSEFQRIQMRVAA"}},
  "assay_in_all_cases": "glycan array binding signal (z-score within array); higher = stronger binding",
  "settings_in_all_cases": "glycan notation: IUPAC condensed, linker removed",
  "key": {"[1]": {"molecular_target": "Fuc(a1-2)Gal(b1-4)GlcNAc(b1-3)Gal(b1-4)GlcNAc(b1-2)Man(a1-3)[Fuc(a1-2)Gal(b1-4)GlcNAc(b1-3)Gal(b1-4)GlcNAc(b1-2)Man(a1-6)]Man(b1-4)GlcNAc(b1-4)GlcNAc", "procedure,_shortened": "(§1)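 Glycan array data came from 3228 arrays in the Consortium for Functional Glycomics database, and only arrays with an available protein sequence were kept. Glycan names were put into IUPAC-condensed notation, and columns mapping to the same glycan were averaged. The binding signal is a within-array Z-score, averaged across arrays of one protein sequence run at different concentrations or buffers and across linkers. A negative Z-score can be read as non-binding.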"}, "[2]": {"molecular_target": "Fuc(a1-2)Gal(b1-4)GlcNAc(b1-3)Gal(b1-4)GlcNAc(b1-3)Gal(b1-4)GlcNAc", "procedure,_shortened": "as §1"}, "[3]": {"molecular_target": "Fuc(a1-2)Gal(b1-4)GlcNAc(b1-3)GalNAc", "procedure,_shortened": "as §1"}, "[4]": {"molecular_target": "Fuc(a1-2)Gal(b1-4)GlcNAc(b1-3)[Fuc(a1-2)Gal(b1-4)GlcNAc(b1-6)]GalNAc", "procedure,_shortened": "as §1"}, "[5]": {"molecular_target": "Fuc(a1-2)Gal(b1-4)GlcNAc(b1-3)[Fuc(a1-3)[Gal(b1-4)]GlcNAc(b1-6)]Gal(b1-4)Glc", "procedure,_shortened": "as §1"}, "[6]": {"molecular_target": "Fuc(a1-2)Gal(b1-4)GlcNAc(b1-6)GalNAc", "procedure,_shortened": "as §1"}, "[7]": {"molecular_target": "Fuc(a1-2)Gal(b1-4)GlcNAc6S", "procedure,_shortened": "as §1"}, "[8]": {"molecular_target": "Fuc(a1-2)Gal(b1-4)[Fuc(a1-3)]GlcNAc", "procedure,_shortened": "as §1"}, "[9]": {"molecular_target": "Fuc(a1-2)Gal(b1-4)[Fuc(a1-3)]GlcNAc(b1-2)Man(a1-3)[Fuc(a1-2)Gal(b1-4)[Fuc(a1-3)]GlcNAc(b1-2)Man(a1-6)]Man(b1-4)GlcNAc(b1-4)[Fuc(a1-6)]GlcNAc", "procedure,_shortened": "as §1"}, "[10]": {"molecular_target": "Fuc(a1-2)Gal(b1-4)[Fuc(a1-3)]GlcNAc(b1-2)[Fuc(a1-2)Gal(b1-4)[Fuc(a1-3)]GlcNAc(b1-4)]Man(a1-3)[Fuc(a1-2)Gal(b1-4)[Fuc(a1-3)]GlcNAc(b1-2)Man(a1-6)]Man(b1-4)GlcNAc(b1-4)GlcNAc", "procedure,_shortened": "as §1"}, "[11]": {"molecular_target": "Fuc(a1-2)Gal(b1-4)[Fuc(a1-3)]GlcNAc(b1-3)Gal(b1-4)[Fuc(a1-3)]GlcNAc", "procedure,_shortened": "as §1"}, "[12]": {"molecular_target": "Fuc(a1-2)Gal(b1-4)[Fuc(a1-3)]GlcNAc(b1-3)Gal(b1-4)[Fuc(a1-3)]GlcNAc(b1-3)Gal(b1-4)[Fuc(a1-3)]GlcNAc", "procedure,_shortened": "as §1"}, "[13]": {"molecular_target": "Fuc(a1-2)Gal(b1-4)[Fuc(a1-3)]GlcNAc(b1-3)GalNAc", "procedure,_shortened": "as §1"}, "[14]": {"molecular_target": "Fuc(a1-2)Gal(b1-4)[Fuc(a1-3)]GlcNAc(b1-3)[Neu5Ac(a2-6)Gal(b1-4)GlcNAc(b1-6)]Gal(b1-4)Glc", "procedure,_shortened": "as §1"}, "[15]": {"molecular_target": "Fuc(a1-2)Gal3S(b1-4)GlcNAc", "procedure,_shortened": "as §1"}, "[16]": {"molecular_target": "Fuc(a1-2)Gal6S(b1-3)GlcNAc", "procedure,_shortened": "as §1"}, "[17]": {"molecular_target": "Fuc(a1-2)Gal6S(b1-3)GlcNAc6S", "procedure,_shortened": "as §1"}, "Fuc(a1-2)Gal6S(b1-4)Glc": {"molecular_target": "Fuc(a1-2)Gal6S(b1-4)Glc", "procedure,_shortened": "as §1"}, "[18]": {"molecular_target": "Fuc(a1-2)Gal6S(b1-4)Glc6S", "procedure,_shortened": "as §1"}, "Fuc(a1-2)GlcNAc": {"molecular_target": "Fuc(a1-2)GlcNAc", "procedure,_shortened": "as §1"}, "Fuc(a1-2)[Gal(a1-3)]Gal": {"molecular_target": "Fuc(a1-2)[Gal(a1-3)]Gal", "procedure,_shortened": "as §1"}, "[19]": {"molecular_target": "Fuc(a1-2)[Gal(a1-3)]Gal(b1-3)GalNAc", "procedure,_shortened": "as §1"}, "[20]": {"molecular_target": "Fuc(a1-2)[Gal(a1-3)]Gal(b1-3)GalNAc(b1-3)Gal(a1-4)Gal(b1-4)Glc", "procedure,_shortened": "as §1"}, "[21]": {"molecular_target": "Fuc(a1-2)[Gal(a1-3)]Gal(b1-3)GlcNAc", "procedure,_shortened": "as §1"}, "[22]": {"molecular_target": "Fuc(a1-2)[Gal(a1-3)]Gal(b1-3)GlcNAc(b1-2)Man(a1-3)[Fuc(a1-2)[Gal(a1-3)]Gal(b1-3)GlcNAc(b1-2)Man(a1-6)]Man(b1-4)GlcNAc(b1-4)GlcNAc", "procedure,_shortened": "as §1"}, "[23]": {"molecular_target": "Fuc(a1-2)[Gal(a1-3)]Gal(b1-3)GlcNAc(b1-2)Man(a1-3)[Fuc(a1-2)[Gal(a1-3)]Gal(b1-3)GlcNAc(b1-2)Man(a1-6)]Man(b1-4)GlcNAc(b1-4)[Fuc(a1-6)]GlcNAc", "procedure,_shortened": "as §1"}, "[24]": {"molecular_target": "Fuc(a1-2)[Gal(a1-3)]Gal(b1-3)GlcNAc(b1-3)GalNAc", "procedure,_shortened": "as §1"}, "[25]": {"molecular_target": "Fuc(a1-2)[Gal(a1-3)]Gal(b1-3)GlcNAc(b1-6)GalNAc", "procedure,_shortened": "as §1"}, "[26]": {"molecular_target": "Fuc(a1-2)[Gal(a1-3)]Gal(b1-4)Glc", "procedure,_shortened": "as §1"}, "[27]": {"molecular_target": "Fuc(a1-2)[Gal(a1-3)]Gal(b1-4)GlcNAc", "procedure,_shortened": "as §1"}},
  "note": "Some of the results follow.",
  "data": [
    {"binder": "B1", "values": [
      {"measurement": "glycan array binding signal (z-score)", "setting": "[1]", "result": -0.082},
      {"measurement": "glycan array binding signal (z-score)", "setting": "[2]", "result": 0.359},
      {"measurement": "glycan array binding signal (z-score)", "setting": "[3]", "result": -0.175},
      {"measurement": "glycan array binding signal (z-score)", "setting": "[4]", "result": -0.18},
      {"measurement": "glycan array binding signal (z-score)", "setting": "[5]", "result": -0.172},
      {"measurement": "glycan array binding signal (z-score)", "setting": "[6]", "result": -0.173},
      {"measurement": "glycan array binding signal (z-score)", "setting": "[7]", "result": -0.062},
      {"measurement": "glycan array binding signal (z-score)", "setting": "[8]", "result": -0.169},
      {"measurement": "glycan array binding signal (z-score)", "setting": "[9]", "result": -0.168},
      {"measurement": "glycan array binding signal (z-score)", "setting": "[10]", "result": -0.16},
      {"measurement": "glycan array binding signal (z-score)", "setting": "[11]", "result": -0.177},
      {"measurement": "glycan array binding signal (z-score)", "setting": "[12]", "result": -0.17},
      {"measurement": "glycan array binding signal (z-score)", "setting": "[13]", "result": -0.159},
      {"measurement": "glycan array binding signal (z-score)", "setting": "[14]", "result": -0.183},
      {"measurement": "glycan array binding signal (z-score)", "setting": "[15]", "result": -0.177},
      {"measurement": "glycan array binding signal (z-score)", "setting": "[16]", "result": -0.184},
      {"measurement": "glycan array binding signal (z-score)", "setting": "[17]", "result": -0.178},
      {"measurement": "glycan array binding signal (z-score)", "setting": "Fuc(a1-2)Gal6S(b1-4)Glc", "result": -0.178},
      {"measurement": "glycan array binding signal (z-score)", "setting": "[18]", "result": -0.173},
      {"measurement": "glycan array binding signal (z-score)", "setting": "Fuc(a1-2)GlcNAc", "result": -0.253},
      {"measurement": "glycan array binding signal (z-score)", "setting": "Fuc(a1-2)[Gal(a1-3)]Gal", "result": -0.181},
      {"measurement": "glycan array binding signal (z-score)", "setting": "[19]", "result": -0.178},
      {"measurement": "glycan array binding signal (z-score)", "setting": "[20]", "result": -0.179},
      {"measurement": "glycan array binding signal (z-score)", "setting": "[21]", "result": -0.167},
      {"measurement": "glycan array binding signal (z-score)", "setting": "[22]", "result": -0.16},
      {"measurement": "glycan array binding signal (z-score)", "setting": "[23]", "result": -0.152},
      {"measurement": "glycan array binding signal (z-score)", "setting": "[24]", "result": -0.176},
      {"measurement": "glycan array binding signal (z-score)", "setting": "[25]", "result": -0.177},
      {"measurement": "glycan array binding signal (z-score)", "setting": "[26]", "result": -0.168},
      {"measurement": "glycan array binding signal (z-score)", "setting": "[27]", "result": -0.05}
    ]}
  ]
}
